# Assay results published in the supplement of paper PMC8728848.
# The other results are listed elsewhere or left out.
# B1: RegIIIalpha (Mus musculus), O09037 (protein)
# chain: MLPHLVLNSISWMLLSCLLFVFQVQGEDFQKEVPSPRTSCPMGYKAYRSHCYALVMTPKSWFQADLVCQKRPSGHLVSILSGGEASFVSSLVNGRVDNYQDIWIGLHDPTMGQQPNGGGWEWSNSDVLNYLNWDGDPSSTVNRGHCGSLTASSGFLKWGDYYCDGTLPFVCKFKQ
# What was measured:
# Test in all cases: glycan array binding signal (z-score within array); higher = stronger binding
# Conditions in all cases: glycan notation: IUPAC condensed, linker removed
# Fuc(a1-2)Gal = target: Fuc(a1-2)Gal
# Outline: (§1)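 The binding signal is a Z-score computed within each array. Data were drawn from 3228 arrays in the Consortium for Functional Glycomics database, restricted to those with a known protein sequence. Scores were averaged over arrays of the same protein sequence at different concentrations or buffers, and over linkers, and negative values can be taken as non-binding.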
# Fuc(a1-2)Gal(b1-3)GalNAc = target: Fuc(a1-2)Gal(b1-3)GalNAc
# Outline: as §1
# [1] = target: Fuc(a1-2)Gal(b1-3)GalNAc(b1-3)Gal
# Outline: as §1
# [2] = target: Fuc(a1-2)Gal(b1-3)GalNAc(b1-3)Gal(a1-4)Gal(b1-4)Glc
# Outline: as §1
# [3] = target: Fuc(a1-2)Gal(b1-3)GalNAc(b1-4)[Neu5Ac(a2-3)]Gal(b1-4)Glc
# Outline: as §1
# Fuc(a1-2)Gal(b1-3)GlcNAc = target: Fuc(a1-2)Gal(b1-3)GlcNAc
# Outline: as §1
# [4] = target: Fuc(a1-2)Gal(b1-3)[Fuc(a1-4)]GlcNAc
# Outline: as §1
# Fuc(a1-2)Gal(b1-4)Glc = target: Fuc(a1-2)Gal(b1-4)Glc
# Outline: as §1
# Fuc(a1-2)Gal(b1-4)GlcNAc = target: Fuc(a1-2)Gal(b1-4)GlcNAc
# Outline: as §1
# [5] = target: Fuc(a1-2)Gal(b1-4)GlcNAc(b1-3)Gal(b1-4)GlcNAc
# Outline: as §1
# [6] = target: Fuc(a1-2)Gal(b1-4)GlcNAc(b1-3)Gal(b1-4)GlcNAc(b1-3)Gal(b1-4)GlcNAc
# Outline: as §1
# [7] = target: Fuc(a1-2)Gal(b1-4)[Fuc(a1-3)]GlcNAc
# Outline: as §1
# Fuc(a1-2)GlcNAc = target: Fuc(a1-2)GlcNAc
# Outline: as §1
# Fuc(a1-2)[Gal(a1-3)]Gal = target: Fuc(a1-2)[Gal(a1-3)]Gal
# Outline: as §1
# [8] = target: Fuc(a1-2)[Gal(a1-3)]Gal(b1-4)GlcNAc
# Outline: as §1
# [9] = target: Fuc(a1-2)[Gal(a1-4)]Gal(b1-4)GlcNAc
# Outline: as §1
# [10] = target: Fuc(a1-2)[GalNAc(a1-3)]Gal
# Outline: as §1
# [11] = target: Fuc(a1-2)[GalNAc(a1-3)]Gal(b1-4)GlcNAc
# Outline: as §1
# [12] = target: Fuc(a1-2)[GalNAc(a1-4)]Gal(b1-4)GlcNAc
# Outline: as §1
# [13] = target: Fuc(a1-2)[GalNAc(b1-3)]Gal
# Outline: as §1
# Fuc(a1-3)GlcNAc = target: Fuc(a1-3)GlcNAc
# Outline: as §1
# [14] = target: Fuc(a1-3)[Gal(b1-4)]GlcNAc
# Outline: as §1
# [15] = target: Fuc(a1-3)[Gal(b1-4)]GlcNAc(b1-3)Gal(b1-4)[Fuc(a1-3)]GlcNAc
# Outline: as §1
# [16] = target: Fuc(a1-3)[Gal(b1-4)]GlcNAc(b1-3)Gal(b1-4)[Fuc(a1-3)]GlcNAc(b1-3)Gal(b1-4)[Fuc(a1-3)]GlcNAc
# Outline: as §1
# [17] = target: Fuc(a1-3)[Gal3S(b1-4)]GlcNAc
# Outline: as §1
# Fuc(b1-3)GlcNAc = target: Fuc(b1-3)GlcNAc
# Outline: as §1
# Gal(a1-2)Gal = target: Gal(a1-2)Gal
# Outline: as §1
# Gal(a1-3)Gal = target: Gal(a1-3)Gal
# Outline: as §1
# Gal(a1-3)Gal(b1-4)Glc = target: Gal(a1-3)Gal(b1-4)Glc
# Outline: as §1
# Gal(a1-3)Gal(b1-4)GlcNAc = target: Gal(a1-3)Gal(b1-4)GlcNAc
# Outline: as §1
binder,measurement,setting,value
B1,glycan array binding signal (z-score),Fuc(a1-2)Gal,-0.097
same,glycan array binding signal (z-score),Fuc(a1-2)Gal(b1-3)GalNAc,-0.085
same,glycan array binding signal (z-score),[1],-0.064
same,glycan array binding signal (z-score),[2],-0.087
same,glycan array binding signal (z-score),[3],-0.069
same,glycan array binding signal (z-score),Fuc(a1-2)Gal(b1-3)GlcNAc,-0.093
same,glycan array binding signal (z-score),[4],-0.066
same,glycan array binding signal (z-score),Fuc(a1-2)Gal(b1-4)Glc,-0.099
same,glycan array binding signal (z-score),Fuc(a1-2)Gal(b1-4)GlcNAc,-0.094
same,glycan array binding signal (z-score),[5],-0.097
same,glycan array binding signal (z-score),[6],0.048
same,glycan array binding signal (z-score),[7],-0.066
same,glycan array binding signal (z-score),Fuc(a1-2)GlcNAc,-0.089
same,glycan array binding signal (z-score),Fuc(a1-2)[Gal(a1-3)]Gal,-0.098
same,glycan array binding signal (z-score),[8],-0.098
same,glycan array binding signal (z-score),[9],-0.095
same,glycan array binding signal (z-score),[10],-0.086
same,glycan array binding signal (z-score),[11],-0.101
same,glycan array binding signal (z-score),[12],-0.005
same,glycan array binding signal (z-score),[13],-0.091
same,glycan array binding signal (z-score),Fuc(a1-3)GlcNAc,-0.053
same,glycan array binding signal (z-score),[14],-0.04
same,glycan array binding signal (z-score),[15],-0.075
same,glycan array binding signal (z-score),[16],-0.097
same,glycan array binding signal (z-score),[17],-0.045
same,glycan array binding signal (z-score),Fuc(b1-3)GlcNAc,-0.002
same,glycan array binding signal (z-score),Gal(a1-2)Gal,-0.09
same,glycan array binding signal (z-score),Gal(a1-3)Gal,-0.094
same,glycan array binding signal (z-score),Gal(a1-3)Gal(b1-4)Glc,-0.094
same,glycan array binding signal (z-score),Gal(a1-3)Gal(b1-4)GlcNAc,-0.089
